# Test results: the supplement of paper PMC11417369
# This is one part of the list.
# System: PfAP2-HC AP2 domain (GST-tagged)
# Test: gcPBM binding intensity (ln(normalized median fluorescence intensity)); higher = stronger DNA binding
# Procedure, shortened: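 An Agilent 4 × 180k array of primer-extended double-stranded 36-bp intergenic genomic probes, with negative controls, was incubated for 1 h with GST-tagged P. falciparum DNA-binding domains expressed in E. coli. Alexa488 anti-GST antibody detected bound protein, scanned at 488 nm. Binding intensity is the highest Masliner-normalised natural-log median intensity across replicate spots of either probe orientation.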
row,Sequence,gcPBM binding intensity (ln)
1,TGTTTAAAAATAATTTGTACATATATTTTATTTCAT [XGTACX_site1272],9.64
2,ATAAAGAAATAAAGTTGTACATTATATATATATATA [XGTACX_site7729],9.61
3,AATAATTTTTTAAACACACACACATATATATATATA [CACACA_site95],10.7
4,AATACATACGGACACACACACACATATATATATATA [CACACA_site5884],11.6
5,TATAAAAATAGGATTTGTACATATAAAAAAGGAAAA [XGTACX_site8678],9.73
6,TAATATAAAAAAGGTACTACACGAAGGAATAAAAAT [XGTACX_site6872],9.9
7,TATAAATATATGTATGCACACATTTTTTTTGGAAAA [CACACA_site1070],9.62
8,CAGAAATAGAGATACACACACACATATATTTATGTA [CACACA_site3968],11.3
9,TTTGTTCTTTTAATGTGTACATATACACTTGTAATA [XGTACX_site2635],9.74
10,AAAAAAAAAAGAAACACACACATTTGTCTATAATAT [CACACA_site7063],10.2
11,ATGTATGCAAAAATGGTGCATATTAAATGTATAACA [GTGCAC_site9722],9.87
12,TGACCTTATGTGTTTTGAAGGGGAAAGGAAATGCGC [XGTACX_negctrl_site411],9.44
13,ATAATATATACTAAAAGTACATATTATAATAAATTA [XGTACX_site6749],9.57
14,GAAATAATTGTTAAAGGTACACAATGCATATACAAT [XGTACX_site238],9.82
15,ACTTCATTTTTTTTATGTACACAGAAGATTTACAAA [XGTACX_site4021],9.66
16,AGGAAAATAGAAAAAGCACACATATATTTTGGAATG [CACACA_site8080],9.92
17,ACATATGTATGAATATCAAAAAATCCCTATTTAATG [GTGCAC_negctrl_site27],9.64
18,AAAATAATAATTAATACATGCATTAATTCTTTTTTT [TGCATGCA_site741],9.53
19,TATATAAATAAATGTGTACACACATTAAAATCAAAC [CACACA_site8733],10.1

row,Sequence,gcPBM binding intensity (ln)
1,CATATATTATTTAATAGTACATATAAAAGAAAAAAA [XGTACX_site4643],9.55
2,TATATACATATATATACACACATATATATATTTTAT [CACACA_site3788],9.88
3,ATTTATTTATTTTTTTGTACGAATGTTGCACATATA [XGTACX_site4101],9.73
4,ATAGAAACATATTGACGTACAGTATAATAATACAGT [XGTACX_site197],9.91
5,AAATCAACTTATTTTTGTACATATATTTATTATATA [XGTACX_site2925],9.85
6,GAAAAATTAATAAATAAACACACATATATATATATA [CACACA_site8835],9.82
7,TCTTTATGTAAGGTCTTCCACAAAAAAATTAAAAAA [TGCATGCA_negctrl_site229],9.1
8,ATATATTATAGAGGTGTGCACTACATACATTATAAT [GTGCAC_site9991],9.96
9,ATTTTCACCTGAACGGTGCATATTTAATTTTAGGTT,9.83
10,ATATATGTACAAATTGTGCGCAATAATTTTGTCTTT,9.77
11,ATACATATATATGTGTGTACATATGTGTATACATTT [XGTACX_site6544],9.92
12,TTTTATAAATCTAAACGTATCTAAATGAATAATTAA [GTGCAC_negctrl_site44],9.28
13,ATATGTATTAAGTGTACACATATAATGGGTTTGTTA [CACACA_site5682],9.85
14,GAATGAAAATAAAATTGTACACATATCTATATCTAT [XGTACX_site2642],9.63
15,AAAAAAAAAAAAAGTTGTACATTATTTTCCTAATTC [XGTACX_site7998],9.37
16,TATATTATATGTATTGCACACCTTCAACAACTACTT [CACACA_site8121],9.96
17,TTTAATTAGGATAATTGTACTGAACTAAGTATATTT [XGTACX_site1871],9.23
18,TATTATTTTATGAATACACACATATACGAAAATATT [CACACA_site964],9.67
19,AATTATTGTATGCTATACGTTCCCCTCTAATTTATC [CACACA_negctrl_site1052],9.72

row,Sequence,gcPBM binding intensity (ln)
1,ATTGGGTACAAATACACACACATATAAATATTAATA [CACACA_site7173],10.2
2,TATTTTTATATAATGTGTACTTATACCTTATTTTTT [XGTACX_site1658],9.78
3,TATATTTTTTTTGTGCGTACATACCATTTTAATAAT [XGTACX_site2751],9.83
4,CACAAACAAAAACACACACACACACCCACAAAAATG [CACACA_site2429],11
5,TACATATTTATATACACACACACCGTCCGTGTTAAA [CACACA_site7413],10.2
6,CTAAAAATCTTTTGTTGTACTTTTAGATAATCAGGA [XGTACX_site3968],9.25
7,AAGTAAAAAAATAGCACACACACAAAAACACAGACA [CACACA_site4839],10.7
8,AAAGGGATGTTCATTCTTTTTTTTTTTTTTGTATAT [CACACA_negctrl_site511],9.49
9,AAAAAAAAAAAACACACACACACACTAATACATACA [CACACA_site8135],10.6
10,TTTCCCTACCAAAAATGTACTTATAAGCGTTTTTAT [XGTACX_site739],9.66
11,TTTTTAAATTATTGCACACAAAAATGAAAGGAAAAA [CACACA_site1455],9.7
12,CACTAAAATAAACACACACACACACCGATATATATA [CACACA_site9379],10.8
13,CTTGTCATTTTGCACACACACATGTATAGGTTATTA [CACACA_site7431],10.6
14,TATATTTATATGATAACACACATAAATTATACATTT [CACACA_site1671],9.59
15,TTAATTTTATTTTTTTGTACACATAAATATTATAAA [XGTACX_site4680],9.63
16,TTTTTTTAAATATACACACACATTTATACCTATATA [CACACA_site7572],10.1
17,TATATATATATAGACACACACACACCCATATATATA [CACACA_site4117],10.9
18,TATAACTATAAAAGTAGTACACATATATATTATATA [XGTACX_site1391],9.69
19,AATGGTTTAAAATACTGTACATATATATAAAAGTAA [XGTACX_site6187],9.69
